This note sets out measurements from ChEMBL document CHEMBL4888484, “Replenishing the malaria drug discovery pipeline: Screening and hit evaluation of the MMV Hit Generation Library 1 (HGL1) against asexual blood stage Plasmodium falciparum ,using a nano luciferase reporter read-out” (2022).

The whole screen tested about 150,000 compounds, of which about 540 (0.36%) showed an effect of 50% or more. This is one part of the list.

In this test the test system is Plasmodium falciparum. The test is described as follows: Primary screen in NF54 nanoGlo assay, in single point, at 2uM, 72h; a lower Z score goes with more inhibition. The note with it: timepoint 72 hour. The class given is functional, Erythrocyte.
For the molecule `CS(=O)(=O)c1cccc(-c2nnc(NC(=O)C3=COCCO3)o2)c1`, the % Inhibition (in general, the relative decrease from the control value, in per cent) was -6% and the Z score was 0.72.

Regarding `C[C@@H](CN1CCCC1=O)NCc1c[nH]nc1C(C)(C)C`, the “% Inhibition” value is 0% and the Z score was 0.06.

On to `Cc1ccc(C(=O)N2CCCN(c3nc(C4CCOCC4)nc4c3cnn4-c3ccccc3)CC2)cc1`, for which the “% Inhibition” value is on record as -2% and the Z score came to 0.44.

Turning to `Cc1cc(C)cc(OCc2nc(C(=O)NCC(C)C)cs2)c1`, the “% Inhibition” value is recorded as 5% and the Z score is recorded as -0.79.

Take `COc1ccc(-c2c(C(=O)N3CCN(C4CCN(C)CC4)CC3)nc3ccccn23)cc1`: the “% Inhibition” value is given as -1% and the Z score is listed as 0.09.

Consider `COc1cc(C)cnc1C(=O)N1CCc2cc(Cl)ccc21`, for which the “% Inhibition” value was -14% and the Z score turned out to be 1.2.

With `Cc1noc(C)c1C(=O)Nc1sc2c(c1C(N)=O)CCC2`, the “% Inhibition” value was determined as 11% and the Z score was -1.58.

On to `O=C(C1=Cc2ccccc2OC1)N1CCCCC1`, for which the “% Inhibition” value is given as -22% and the Z score is on record as 2.02.

Consider `CC(=O)N(Cc1cccnc1)[C@H]1CCCN(C(=O)Nc2ccc(C)cc2C)C1`, for which the “% Inhibition” value is listed as -1% and the Z score is recorded as 0.1.

Regarding `Cc1cc(C(=O)NCc2cccnc2N2CCC[C@H](O)C2)no1`, the “% Inhibition” value is -12% and the Z score was found to be 1.76.

`O=C(CCc1nc(-c2nnc[nH]2)no1)N1CCC(c2ccsc2)CC1`: the “% Inhibition” value is given as -13% and the Z score is 1.84.

With `COc1cccc(OC2CN(CCC(C)C)C2)c1`, the “% Inhibition” value was found to be 7% and the Z score is -0.94.

In the case of `CCCn1nccc1-c1ccc(CS(C)(=O)=O)cn1`, the “% Inhibition” value was -1% and the Z score came out at 0.1.

Consider `N[C@@H](Cc1ccsc1Cl)C(=O)O`, for which the “% Inhibition” value is given as -12% and the Z score was 1.19.

With `CC(C)c1csc(C(=O)N(CC(F)F)C2CC2)n1`, the “% Inhibition” value turned out to be 1% and the Z score is listed as -0.12.

On to `N#Cc1ccc(N[C@H]2CCN(CC(F)(F)F)C2)nc1`, for which the “% Inhibition” value worked out at 4% and the Z score is -0.82.

Regarding `CN(C(=O)c1ccc2c(c1)OCCO2)C1(C#N)CCC1`, the “% Inhibition” value is -13% and the Z score was 2.43.

For the molecule `NC(=O)c1cccnc1N1CCC[C@](Cc2ccccc2F)(C(=O)O)C1`, the “% Inhibition” value is given as 5% and the Z score is recorded as -0.66.

Consider `Cc1cc([C@H](C)NCCc2ccnn2C)c(C)o1`, for which the “% Inhibition” value was -2% and the Z score was found to be 0.35.

As to `Cc1ccc(NC(=O)C[C@H]2COc3ccccc3NC2=O)cc1C`, the “% Inhibition” value is listed as -7% and the Z score is recorded as 0.84.

`O=C(Nc1nc(Cc2ccccc2)cs1)C1CCOCC1`: the “% Inhibition” value amounted to 33% and the Z score was -0.97.

For the molecule `CC[C@@H](c1ccncc1)N(C)C(=O)NCCOc1ccc(F)c(F)c1`, the “% Inhibition” value is listed as -7% and the Z score amounted to 0.66.

Take `Cc1ccc(-c2nc3n(CC(=O)Nc4ccc(F)cc4)c(C)c(Cc4ccccc4)c(=O)n3n2)cc1`: the “% Inhibition” value was -1% and the Z score came to 0.18.

For `O=C(N[C@@H](CO)[C@@H](O)c1ccccc1)c1cc(-c2ccc(O)cc2)n[nH]1`, the “% Inhibition” value is -8% and the Z score was found to be 1.51.

For the molecule `CCC1(CC)NC(=O)N(CC(=O)N(Cc2cccnc2)C(C)C)C1=O`, the “% Inhibition” value is -9% and the Z score turned out to be 1.06.

With `Cc1cc(C(=O)N[C@@H](C)c2ccccn2)on1`, the “% Inhibition” value came to 1% and the Z score is given as -0.08.

Turning to `COc1cc2c(cc1CN1CCC[C@H](CS(C)(=O)=O)C1)OCCCO2`, the “% Inhibition” value is given as -9% and the Z score is given as 1.71.

As for `Cc1cc(Nc2ccc3c(ccn3CCO)c2)n2ncnc2n1`, the “% Inhibition” value stood at 1% and the Z score was -0.25.

`CO[C@@](C)(CS(=O)(=O)NCC(C)(C)CCCO)c1ccccc1`: the “% Inhibition” value was -4% and the Z score was found to be 0.6.

As for `CCCC1CCCCC1NC(=O)N(C)C(C)CS(=O)(=O)CC` (stereo not drawn), the “% Inhibition” value came out at 0% and the Z score was -0.02.

Consider `CCCNC(=O)N1CC[C@H](CC(=O)N(C)Cc2ccccc2)C1`, for which the “% Inhibition” value is -1% and the Z score stood at 0.16.

As for `O=C(N[C@@H](Cc1ccccc1)C(=O)N1CCCCCC1)c1ccccc1`, the “% Inhibition” value is on record as 0% and the Z score is listed as -0.03.

In the case of `COc1ccc(CCc2n[nH]c(NC(=O)c3nc(C)sc3C)n2)cc1`, the “% Inhibition” value turned out to be 20% and the Z score is reported as -2.91.

Take `Cc1ccsc1CN(Cc1ccc(F)cc1)C(=O)CN(C1CCCCC1)S(=O)(=O)c1ccc2ccccc2c1`: the “% Inhibition” value was -7% and the Z score is 1.4.

With `COCCCN1C(=O)CC[C@@H]2CN(C(=O)c3ccc(Cl)cc3O)CC[C@@H]21`, the “% Inhibition” value is listed as 11% and the Z score is recorded as -1.4.

For `COc1ccc(CC(=O)N2CCc3nc(N4CCN(c5ccc(F)cc5)CC4)nc(N(C)C)c3C2)cc1`, the “% Inhibition” value is on record as -12% and the Z score is on record as 1.59.

In the case of `COc1ccc(CN2CCc3ccccc3C2)cc1OC[C@@H](O)CN1CCCC1`, the “% Inhibition” value came out at 10% and the Z score is -1.44.

For `NC(=O)c1cccc(CCN[C@H]2CCC23CCCC3)c1`, the “% Inhibition” value is listed as -2% and the Z score worked out at 0.23.

In the case of `CC[C@H](NC(=O)COCC(F)(F)C(F)F)c1cc(C)ccn1`, the “% Inhibition” value is given as 2% and the Z score is -0.42.

In the case of `Cc1ccc(C)c(N2CCN(/C(=N/c3ccc(C(=O)O)cc3)NCc3ccccc3)CC2)c1`, the “% Inhibition” value is -16% and the Z score is recorded as 1.58.

Turning to `CCO[C@H]1C[C@H](NC(=O)Nc2ccc(COC)c(C#N)c2)C1`, the “% Inhibition” value was -12% and the Z score turned out to be 2.27.

On to `CC(C)CN(CC(C)C)S(=O)(=O)N1CCC(C(=O)NC2CCCCCC2)CC1`, for which the “% Inhibition” value is -8% and the Z score was 1.29.

As for `Cc1cc(C(=O)NC2CCCCCC2)nn1C`, the “% Inhibition” value is -3% and the Z score is listed as 0.43.

As for `N#Cc1ccc(Br)cc1N1C[C@@H]2CC[C@H](O)[C@@H]2C1`, the “% Inhibition” value is recorded as -5% and the Z score is listed as 0.99.

On to `CC1=CCCC(C)C1CNCc1nccn1C(F)F` (stereo not drawn), for which the “% Inhibition” value turned out to be 5% and the Z score is -0.62.

In the case of `COc1ccccc1C(=O)N[C@H]1CCCc2c1[nH]c1c(Cl)cccc21`, the “% Inhibition” value stood at 9% and the Z score was -1.1.

In the case of `CC(C)CN1C(=O)CC[C@@H](C(=O)Nc2ccc(N3CCOCC3)cc2)[C@H]1C`, the “% Inhibition” value is given as -15% and the Z score was 2.

For `Cc1ccc(C(=O)NC2c3ccccc3CCC2n2ccnc2)c(=O)[nH]1` (stereo not drawn), the “% Inhibition” value turned out to be 30% and the Z score was -0.01.

With `CN1CCC(CNc2cc([C@H]3CCOC3)ncn2)(c2ccccc2)CC1`, the “% Inhibition” value is -9% and the Z score stood at 1.3.

In the case of `CC(C)CN1C(=O)N(CCCc2cccnc2)C(=O)C12CCNCC2`, the “% Inhibition” value is -12% and the Z score is recorded as 1.6.

Turning to `COc1ccc2c(c1)/C(=C1/SC(C(C)=O)=C(c3ccccc3)S1)C(=S)C(C)(C)N2`, the “% Inhibition” value is reported as -5% and the Z score is listed as 0.65.

For `CC(C)Cc1cc(-c2nccn2-c2ccc(C(N)=O)cc2)n[nH]1`, the “% Inhibition” value is -10% and the Z score was determined as 1.85.

In the case of `O=C1CCN(c2nc(-c3ccc(Cl)cc3)nc3c2CNC3)CCN1`, the “% Inhibition” value is given as -14% and the Z score is listed as 1.92.

With `CC1CC(C)CN(C(C)(C)CNC(=O)CC2(O)CCCCC2)C1` (stereo not drawn), the “% Inhibition” value was -5% and the Z score is recorded as 0.59.
